Measured values taken from PubChem BioAssay AID504832 (National Center for Advancing Translational Sciences (NCATS), 2011).
Screen size: about 310,000 compounds; about 18,000 (5.8%) were called active. This list was built around the results that the source calls inconclusive (neither active nor inactive); the mix of calls is not that of the screen. The call rests on the fitted dose curve; in most records, active means well fitted inhibition curve with a large enough effect; inconclusive means small, poorly fitted or top-dose-only effect, or another doubt; inactive means no such curve, though single readings can be large or run the other way. No potency is given beside an inconclusive call; the fits are too rough.

assay: Primary qHTS for delayed death inhibitors of the malarial parasite plastid, 48 hour incubation; conditions: P. falciparum luciferase growth in erythrocytes; series mostly up to 28.7 µM; activity change, negative = inhibition: at the top concentration
Procedure, shortened: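 A one-generation exposure of luciferase-tagged malaria parasites in RPMI 1640/Albumax erythrocyte culture, 37 C and 5% CO2. Inhibition is inferred from decreased luminescence after adding detection reagent.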
On the % scale 0 is the no-effect control and ±100 the full control effect; potency means the concentration at half of the fitted maximal effect; tags describe the fitted curve by direction and shape.

Row | Structure (SMILES) | Potency | activity change, negative = inhibition
1 | CCC(=O)Nc1c(S(=O)(=O)c2ccccc2)c2nc3ccccc3nc2n1C(C)c1ccccc1 (stereo not drawn) | active: 11.7 µM | –
2 | COc1ccc(Cc2nc3ccc(C(=O)N(C)CCc4cnn(C)c4)cc3o2)cc1OC | – | inactive: -19.3%
3 | COc1cc(OC)c(OC)cc1/C=N/Nc1ncnc2c1[nH]c1ccc(C)cc12 | inconclusive [inhibitor, full curve, poor fit] | –
4 | NS(=O)(=O)c1ccc(CNc2ncnc3sccc23)cc1 | – | inactive: -14.5%
5 | O=C(CNCCC1=CCCCC1)Nc1ccc(N2CCCCCC2)cc1 | inconclusive [inhibitor, partial curve, poor fit] | –
6 | N#CCCn1cc(C(=O)N2CCCCC2)c(-c2cccc([N+](=O)[O-])c2)n1 | – | inactive: -4.08%
7 | Cc1cccc(C)c1OCC(O)CNS(=O)(=O)c1ccccc1C(=O)N1CCCCC1 (stereo not drawn) | inconclusive [inhibitor, partial curve] | –
8 | CON/C=C(\C=Nc1ccc(Cl)cc1)c1ncc(C(F)(F)F)cc1Cl | inconclusive [inhibitor, single point] | –
9 | O=C(Cc1cccs1)Nc1nc2c(ccc3ccccc32)s1 | – | inactive: 41.3%
10 | Cc1cc(C)c2sc(N(CCN(C)C)C(=O)c3c(F)cccc3F)nc2c1 | inconclusive [inhibitor, partial curve, poor fit] | –
11 | COc1ccc(C(=O)NCc2ccccc2OC)c(OC)c1 | inconclusive [inhibitor, single point] | –
12 | CS/C(=C\[N+](=O)[O-])Nc1ccc(C)cc1 | inconclusive [inhibitor, single point] | –
13 | CCOC(=O)/C(C#N)=C/C=C1\C=Cc2ccccc2N1CC | inconclusive [inhibitor, partial curve] | –
14 | COc1ccc2[nH]c(=O)c(CN(CC3CCCO3)C(=O)Nc3ccccc3)cc2c1 (stereo not drawn) | – | inactive: 37%
15 | CC1CCN(S(=O)(=O)c2ccc(C(=O)Nc3nnc(C4CC4)o3)cc2)CC1 | inconclusive [inhibitor, single point] | –
16 | CCC(C)Sc1nc2c(c(=O)[nH]c(=O)n2C)n1Cc1ccccc1Cl (stereo not drawn) | active: 11.7 µM | –
17 | CCN(Cc1ccncc1)C(=O)c1cc(COc2c(C)cccc2C)on1 | inconclusive [inhibitor, partial curve] | –
18 | Cc1csc(NC(=O)c2cccc(Cn3nc(C)c(Br)c3C)c2)n1 | inconclusive [inhibitor, single point] | –
19 | Cc1cccc(Nc2nnc(SCC(=O)Nc3ccccc3[N+](=O)[O-])s2)c1C | inconclusive [inhibitor, single point] | –
20 | Clc1ccc(Cn2ccc(C3CC3)n2)cc1 | – | inactive: 87.7%
21 | O=C(Nc1cccc(-c2nc3ccccc3[nH]2)c1)c1ccc(C(=O)Nc2cccc(-c3nc4ccccc4[nH]3)c2)cc1 | active: 0.37 µM | –
22 | COc1cc(CNCCN2CCOCC2)ccc1OCc1ccc(Cl)cc1Cl | active: 9.28 µM | –
23 | Cc1cccc(N2CCN(C(=O)c3ccccc3NC(=O)C3=CSCCO3)CC2C)c1 (stereo not drawn) | inconclusive [inhibitor, partial curve] | –

Row | Structure (SMILES) | Potency | activity change, negative = inhibition
24 | Cc1cc(NC(=O)CCC(=O)N(Cc2ccco2)C(C(=O)NC2CCCCC2)c2ccccc2)no1 (stereo not drawn) | inconclusive [inhibitor, single point] | –
25 | Cc1ccc(C)c(OCC(=O)NCC(c2ccco2)N2CCCCC2)c1 (stereo not drawn) | inconclusive [inhibitor, single point] | –
26 | O=c1c2cc(N3CCOCC3)ccc2[nH]c(=S)n1CCCN1CCCC1 | inconclusive [inhibitor, single point] | –
27 | O=C(Nc1nc(-c2ccc(F)c(F)c2)cs1)Nc1ccc(F)cc1F | – | inactive: 0.206%
28 | CCN(Cc1nc2cc(Cl)ccc2c(=O)[nH]1)C(=O)c1nn(C)c(=O)c2ccccc12 | active: 8.28 µM | –
29 | C=CCOc1ccc2ccccc2c1CNn1c(C)n[nH]c1=S | inconclusive [inhibitor, single point] | –
30 | Cc1cccc(N(CC(=O)NC(C)(C)C)C(=O)CNC(=O)c2cccs2)c1C | inconclusive [inhibitor, partial curve, poor fit] | –
31 | CCOC(=O)C1CCCN(C(=O)CN2C(=O)c3ccccc3C2=O)C1 (stereo not drawn) | – | inactive: 7.98%
32 | COc1ccc(C)cc1NC(=O)CSc1nnc2ccc(-c3cccnc3)nn12 | inconclusive [inhibitor, single point] | –
33 | COc1ccccc1NS(=O)(=O)c1cc(NC(=O)c2ccncc2)ccc1N1CCOCC1 | inconclusive [inhibitor, partial curve, poor fit] | –
34 | CC1=CC(C)(C)N(C(=O)CN2C(=O)c3ccccc3C2=O)c2ccccc21 | inconclusive [inhibitor, single point] | –
35 | COCCNC(=S)N1CCc2cc(OC)c(OC)cc2C1COc1ccc(C(C)C)cc1 (stereo not drawn) | active: 11.7 µM | –
36 | COc1ccccc1N/C(N)=N/c1nc(C(F)(F)F)cc(=O)[nH]1 | – | inactive: -24.2%
37 | COc1ccc(C(C)=O)cc1CC(=O)NCCCn1ccnc1 | inconclusive [inhibitor, partial curve, poor fit] | –
38 | COc1cc2c(cc1OC)CN(C(=O)c1ccc(S(=O)(=O)N3CCCCCC3)cc1)CC2 | active: 6.57 µM | –
39 | CCOC(=O)c1nn(-c2ccc(F)cc2)c(=O)c2c(N)scc12 | inconclusive [inhibitor, single point] | –
40 | Nn1c(SCc2csc(-c3ccccc3)n2)nnc1-c1cccs1 | inconclusive [inhibitor, single point] | –
41 | O=C(CC(=O)N/N=C\c1ccc([N+](=O)[O-])cc1)NCCc1ccccc1 | – | inactive: 10.6%
42 | COc1ccccc1NC(=O)N(CCN1CCOCC1)Cc1cc2cc(C)cc(C)c2[nH]c1=O | inconclusive [inhibitor, single point] | –
43 | Cc1ccc(N2C(N)=C(C#N)C(c3cccnc3)C3=C2CC(C)(C)CC3=O)cc1 (stereo not drawn) | inconclusive [inhibitor, single point] | –
44 | Cc1cc(Cl)ccc1OCC(=O)Nn1c(C)ccc1C | inconclusive [inhibitor, single point] | –
45 | CCCc1cc(C(N)=O)c(NC(=O)c2ccco2)s1 | – | inactive: 52.3%
46 | O=C(CSCc1ccc(Cl)cc1Cl)Nc1nccs1 | inconclusive [inhibitor, partial curve, poor fit] | –

Row | Structure (SMILES) | Potency | activity change, negative = inhibition
47 | Cc1ccccc1CN1C[C@@H]2C[C@@H](c3cn(C)nc3-c3ccccc3)N3CCC[C@@]23C1=O | active: 6.57 µM | –
48 | COc1ccccc1Oc1ncnc2c1cnn2-c1ccccc1 | – | inactive: 83.2%
49 | CCc1ccc(-c2cc(C)no2)cc1S(=O)(=O)N1CCN(c2ccccn2)CC1 | inconclusive [inhibitor, single point] | –
50 | CC1=CC(C)(C)Nc2ccc(OC(=O)CN3C(=O)C4CCCCC4C3=O)cc21 (stereo not drawn) | active: 10.4 µM | –
51 | COc1cc(C(=O)Nc2cccc(-c3cn4cccnc4n3)c2)cc(OC)c1OC | inconclusive [inhibitor, partial curve] | –
52 | O=C(Nc1cccc(Cl)c1)N(CCN1CCOCC1)Cc1ccccc1F | inconclusive [inhibitor, partial curve, poor fit] | –
53 | CCOC(=O)C1(CCCc2ccccc2)CCN(C(=O)CCN2CCCCC2=O)CC1 | inconclusive [inhibitor, partial curve, poor fit] | –
54 | CC(CNC(=O)CCn1ccc2cc(S(=O)(=O)N3CCCC3)ccc21)c1ccccc1 (stereo not drawn) | inconclusive [inhibitor, partial curve, poor fit] | –
55 | O=C1CC(N2CCN(c3ccc(F)cc3)CC2)C(=O)N1Cc1ccc(N2CCCC2=O)cc1 (stereo not drawn) | inconclusive [inhibitor, single point] | –
56 | O=S1(=O)CC2SC(=S)N(Cc3ccccc3)C2C1 (stereo not drawn) | inconclusive [inhibitor, full curve, poor fit] | –
57 | COc1ccc(CNC(=O)CN2CCC(NC(=O)c3ccc(OC)cc3)CC2)cc1 | – | inactive: -7.66%
58 | CCc1ccccc1NC(=O)CN(C)C(=O)COC(=O)c1c(Cl)cccc1Cl | inconclusive [inhibitor, single point] | –
59 | CCOc1ccc(C(=O)COC(=O)c2cc(=O)[nH]c3ccccc23)cc1 | – | inactive: 13.4%
60 | CCN(CCCNC(=O)CN(C)S(=O)(=O)c1cccc2nsnc12)c1cccc(C)c1 | inconclusive [inhibitor, partial curve] | –
61 | CCCCOc1ccc(NC(=O)CSc2cccc3cccnc23)cc1 | – | inactive: -9.77%
62 | O=C(NC1CCCC1)C1CCN(S(=O)(=O)N2CCCCC2)CC1 | inconclusive [inhibitor, full curve, poor fit] | –
63 | Cc1ccnc(NC(=O)c2ccccc2NC(=O)c2ccc(Cl)cc2Cl)c1 | inconclusive [inhibitor, single point] | –
64 | N#Cc1ccccc1Cn1c(=O)n(Cc2ccc(C(=O)NCc3ccco3)cc2)c(=O)c2sccc21 | inconclusive [inhibitor, partial curve] | –
65 | COc1ccc(OC)c(-c2cc(-c3cccnc3)nc(N)c2C#N)c1 | inconclusive [inhibitor, partial curve, poor fit] | –
66 | O=C(CSc1nnc(-c2cccnc2)s1)Nc1ccccc1 | – | inactive: 19.4%
67 | CN(C)CCCN1C(=O)c2cccc3cccc(c23)C1=O | inconclusive [inhibitor, single point] | –
68 | O=S1(=O)N=C(N/N=C/c2ccco2)c2ccccc21 | inconclusive [inhibitor, partial curve, poor fit] | –
